Experimental data published in the supplement of paper PMC12217912.
This is one part of the list. The full chains were built here from the parent and the listed change. Values near 0.05 are background.

B1: TEV protease; numbered along this chain (parent)
chain: MGESLFKGPRDYNPISSSICHLTNESDGHTTSLYGIGFGPFIITNKHLFRRNNGTLVVQSLHGVFKVKDTTTLQQHLVDGRDMIIIRMPKDFPPFPQKLKFREPQREERICLVTTNFQTKSMSSMVSDTSCTFPSGDGIFWKHWIQTKDGQCGSPLVSTRDGFIVGIHSASNFTNTNNYFTSVPKNFMELLTNQEAQQWVSGWRLNADSVLWGGHKVFMVKPEEPFQPVKEATQL

Variants of: B1
Test: raw area under fraction-flipped curve 0-4 h after induction (AUC4h, not background-subtracted), DNA-recorder readout of cleavage of the substrate (dimensionless); higher = more cleavage of the substrate by the protease variant
Conditions: temperature: 34 °C; time window: 0-4 h after rhamnose induction
Protocol: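 In vivo DNA recorder in E. coli TOP10(DE3) ΔrhaA at 34 °C. Each TEVp single-site mutant (parent TEVp 0) is paired with a single-site variant of the 7-mer TEVs (canonical ENLYFQ|S). The substrate sits between flexible linkers in a Bxb1-sfGFP-TEVs-SsrA fusion, so cleavage stabilises Bxb1 and speeds flipping of a recombination array, read by NGS. The value is the raw area under the fraction-flipped curve over 0-4 h after rhamnose induction (AUC4h), with ≥20 reads per time point. It is not background-subtracted; inactive controls average about 0.047.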
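Note: Bxb1 expression induced with 0.2% (w/v) L-rhamnose at OD600 near 0.5, cultures sampled hourly, flipped fraction per protease–substrate barcode pair counted by paired-end Illumina sequencing.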

Variant	area with substrate ECLYFQS	area with substrate EDLYFQS	area with substrate EELYFQS	area with substrate EGLYFQS	area with substrate EHLYFQS	area with substrate ELLYFQS	area with substrate EMLYFQS	area with substrate EQLYFQS	area with substrate ERLYFQS	area with substrate EFLYFQS	area with substrate EILYFQS	area with substrate EKLYFQS	area with substrate EPLYFQS	area with substrate ESLYFQS	area with substrate EVLYFQS	area with substrate EWLYFQS	area with substrate ETLYFQS	area with substrate EYLYFQS
MGESLFKGPRDYNPISSSICHLTNESDGHTTSLYGIGFGPFIITNKHLFRRNNGTLVVQSLHEVFKVKDTTTLQQHLVDGRDMIIIRMPKDFPPFPQKLKFREPQREERICLVTTNFQTKSMSSMVSDTSCTFPSGDGIFWKHWIQTKDGQCGSPLVSTRDGFIVGIHSASNFTNTNNYFTSVPKNFMELLTNQEAQQWVSGWRLNADSVLWGGHKVFMVKPEEPFQPVKEATQL [G63E]	0.0981	0.11	0.101	0.0724	0.116	0.0824	0.0898	0.0644	0.0973									
MGESLFKGPRDYNPISSSICHLTNESDGHTTSLYGIGFGPFIITNKHLFARNNGTLVVQSLHGVFKVKDTTTLQQHLVDGRDMIIIRMPKDFPPFPQKLKFREPQREERICLVTTNFQTKSMSSMVSDTSCTFPSGDGIFWKHWIQTKDGQCGSPLVSTRDGFIVGIHSASNFTNTNNYFTSVPKNFMELLTNQEAQQWVSGWRLNADSVLWGGHKVFMVKPEEPFQPVKEATQL [R50A]	0.111		0.158	0.0945		0.0061	0.152			0.109	0.124	0.12	0.124	0.109	0.107	0.0916		
MGESLFKGPRDYNPISSSICHLTNESDGHTTSLYGIDFGPFIITNKHLFRRNNGTLVVQSLHGVFKVKDTTTLQQHLVDGRDMIIIRMPKDFPPFPQKLKFREPQREERICLVTTNFQTKSMSSMVSDTSCTFPSGDGIFWKHWIQTKDGQCGSPLVSTRDGFIVGIHSASNFTNTNNYFTSVPKNFMELLTNQEAQQWVSGWRLNADSVLWGGHKVFMVKPEEPFQPVKEATQL [G37D]	0.0498				0.0287			0.0425	0.0368			0.0097	0.0337	0.0451	0.0297		0.0399	
MGESLFKGPRDYNPISSSICHLTNESDGHTTSLYYIGFGPFIITNKHLFRRNNGTLVVQSLHGVFKVKDTTTLQQHLVDGRDMIIIRMPKDFPPFPQKLKFREPQREERICLVTTNFQTKSMSSMVSDTSCTFPSGDGIFWKHWIQTKDGQCGSPLVSTRDGFIVGIHSASNFTNTNNYFTSVPKNFMELLTNQEAQQWVSGWRLNADSVLWGGHKVFMVKPEEPFQPVKEATQL [G35Y]	0.0446					0.06						0.0452		0.0294	0.0364			
MGESLFKGPRDYNPISSSICHLTNESDGHTTSLYGIGFGPFIITNKHLFRRNNGTLVVQSLHGVFKVKDTTILQQHLVDGRDMIIIRMPKDFPPFPQKLKFREPQREERICLVTTNFQTKSMSSMVSDTSCTFPSGDGIFWKHWIQTKDGQCGSPLVSTRDGFIVGIHSASNFTNTNNYFTSVPKNFMELLTNQEAQQWVSGWRLNADSVLWGGHKVFMVKPEEPFQPVKEATQL [T72I]	0.0887	0.171		0.0914				0.0913	0.0977					0.0981	0.0961	0.108		0.0803
MGESLFKGPRDYNPISSSICHLTNESDGHTTSLTGIGFGPFIITNKHLFRRNNGTLVVQSLHGVFKVKDTTTLQQHLVDGRDMIIIRMPKDFPPFPQKLKFREPQREERICLVTTNFQTKSMSSMVSDTSCTFPSGDGIFWKHWIQTKDGQCGSPLVSTRDGFIVGIHSASNFTNTNNYFTSVPKNFMELLTNQEAQQWVSGWRLNADSVLWGGHKVFMVKPEEPFQPVKEATQL [Y34T]	0.0721		0.102	0.0596				0.0744	0.0759					0.0752		0.0818		0.0801
MGESLFKGPRDYNPISSSICHLTNESDGHTTSLYGIGFGPFIITNKHLFRRNNPTLVVQSLHGVFKVKDTTTLQQHLVDGRDMIIIRMPKDFPPFPQKLKFREPQREERICLVTTNFQTKSMSSMVSDTSCTFPSGDGIFWKHWIQTKDGQCGSPLVSTRDGFIVGIHSASNFTNTNNYFTSVPKNFMELLTNQEAQQWVSGWRLNADSVLWGGHKVFMVKPEEPFQPVKEATQL [G54P]	0.0559				0.0586		0.0737	0.125	0.0589		0.0522	0.0702		0.0641		0.0617		
MGESLFKGPRDYNPISSSICHLTNESDGHTTSAYGIGFGPFIITNKHLFRRNNGTLVVQSLHGVFKVKDTTTLQQHLVDGRDMIIIRMPKDFPPFPQKLKFREPQREERICLVTTNFQTKSMSSMVSDTSCTFPSGDGIFWKHWIQTKDGQCGSPLVSTRDGFIVGIHSASNFTNTNNYFTSVPKNFMELLTNQEAQQWVSGWRLNADSVLWGGHKVFMVKPEEPFQPVKEATQL [L33A]	0.12	0.136				0.078	0.11	0.106	0.0965		0.0756	0.0949	0.146				0.109	
MGESLFKGPRDYNPISSSICHLTNESDGHTTSLYGIGFGPFIITNKHLLRRNNGTLVVQSLHGVFKVKDTTTLQQHLVDGRDMIIIRMPKDFPPFPQKLKFREPQREERICLVTTNFQTKSMSSMVSDTSCTFPSGDGIFWKHWIQTKDGQCGSPLVSTRDGFIVGIHSASNFTNTNNYFTSVPKNFMELLTNQEAQQWVSGWRLNADSVLWGGHKVFMVKPEEPFQPVKEATQL [F49L]	0.0553	0.0733	0.0698	0.0519	0.0849		0.0297	0.0481	0.0718		0.0494	0.0493		0.0635	0.0544	0.081		
MGESLFKGPRDYNPISSSICHLTNESDGHTTSLYGIGFGPMIITNKHLFRRNNGTLVVQSLHGVFKVKDTTTLQQHLVDGRDMIIIRMPKDFPPFPQKLKFREPQREERICLVTTNFQTKSMSSMVSDTSCTFPSGDGIFWKHWIQTKDGQCGSPLVSTRDGFIVGIHSASNFTNTNNYFTSVPKNFMELLTNQEAQQWVSGWRLNADSVLWGGHKVFMVKPEEPFQPVKEATQL [F41M]	0.101	0.136	0.112	0.0963	0.118		0.0786	0.114	0.109	0.0695	0.0991			0.097	0.0891			
